Here are results for 53 compounds from PubChem BioAssay AID1346428 (National Center for Advancing Translational Sciences (NCATS), 2018).

Structures are written as SMILES. “And” between values parts separate entries of the source, which are not always exact repeats. Equal values may be shown once. Among all 48,000 compounds or so, about 1,200 (2.5%) were called active. Another 2% or so got no clear call; they are omitted.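 How the source made its calls: active means activation of at least 60% and not above a set upper limit (about 1 call in 100 departs from these limits); inconclusive means activation of 40% to 60%, or above that upper limit; inactive means activation under 40%.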 The list shows a part of the results.

The assay has as its target Probable G-protein coupled receptor 32 (Homo sapiens) (UniProt O75388). The assay can be described thus: qHTS for Agonists of Human Resolvin D1 Receptor DRV1. Further: 0% is about no effect. To be noted: CHO-K1 GPR32 beta-arrestin PathHunter luminescence, 90 min; at 76.9 µM; active compounds read high; zero percent set by DMSO-only wells. In short, it runs like this: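 Agonism was scored as beta-arrestin recruitment to ProLink-fused GPR32 in stably transfected CHO-K1 cells, giving a chemiluminescent beta-Gal signal; compounds were incubated 90 min at 37 °C.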
Sequence of UniProt O75388 (O75388 whole entry, looked up, the tested form may be a part): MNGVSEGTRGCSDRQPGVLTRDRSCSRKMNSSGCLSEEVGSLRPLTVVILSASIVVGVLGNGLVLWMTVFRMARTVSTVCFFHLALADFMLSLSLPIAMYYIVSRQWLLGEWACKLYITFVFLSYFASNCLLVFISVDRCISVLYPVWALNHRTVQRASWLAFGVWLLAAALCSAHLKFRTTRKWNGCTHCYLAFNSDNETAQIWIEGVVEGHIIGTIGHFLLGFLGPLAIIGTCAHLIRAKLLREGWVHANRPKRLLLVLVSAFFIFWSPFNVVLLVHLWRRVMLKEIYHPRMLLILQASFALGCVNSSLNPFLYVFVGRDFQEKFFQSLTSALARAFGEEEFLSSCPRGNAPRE
With `Cc1ccc(S(=O)(=O)NCC2CCC(C(=O)NCCc3ccc(Cl)cc3)CC2)cc1` (stereo not drawn), the activation was inactive: -4.92%.
With `CCN(CC)S(=O)(=O)c1ccc2oc(C(=O)NCc3ccccc3OC)c(C)c2c1`, the activation was inactive: -23.4%.
For the compound `CCOc1ccc(N(CC)S(=O)(=O)N2CCCC(C(=O)NCCc3ccc(OC)cc3)C2)cc1` (stereo not drawn), the activation was inactive: 9.97%.
For the compound `Cc1cccc2sc(N(CCCN(C)C)C(=O)COc3ccccc3)nc12`, the activation was inactive: -20.6%.
With `COC(=O)c1ccccc1NC(=O)Cn1c(=O)n(-c2cccc(C(F)(F)F)c2)c(=O)c2c(C)c(C)sc21`, the activation was inactive: 39.2%.
As for `O=C(/C=C\c1ccccc1)NC1CC(=O)N(c2ccccc2)C1` (stereo not drawn), the activation was inactive: -13.7%.
For the compound `CCOC(=O)C1CCCN(C(=O)c2nn(-c3ccc(C)cc3)c(=O)c3c2c2ccccc2n3C)C1` (stereo not drawn), the activation is inactive: -0.111%.
`CCCn1c(CCCNC(=O)c2ccccc2OC)nc2ccccc21`: the activation was inactive: 25.6%.
In the case of `CC(=O)CCCCn1c(=O)c2c(ncn2C)n(C)c1=O`, the activation is inactive: 12.1% and inactive: -3.06%.
For the compound `Cc1cc(C)c2c(n1)sc1c(=O)n(-c3cc(Cl)ccc3C)nnc12`, the activation was inactive: -13.4%.
For the compound `CCOc1ccc(CNS(=O)(=O)c2ccc(-c3coc(C)n3)cc2)cc1OC`, the activation was inactive: 38.7%.
As for `CCN(Cc1ccccc1)C(=O)c1sc2nc3n(c(=O)c2c1C)CCCC3`, the activation is inactive: -6.38%.
Turning to `CCN(CC)CCCNC(=O)c1nn(-c2ccc(C)cc2)c(=O)c2c1c1ccccc1n2C`, the activation is inactive: 1.27%.
For the compound `CCCCN(C)CCCNC(=O)Cn1ncc2c3ccccc3n(Cc3cc(C)ccc3C)c2c1=O`, the activation is inactive: -18.4%.
On to `COc1ccccc1CNC(=O)c1cc2c(s1)-c1ccccc1OC2`, for which the activation was inactive: -22.3%.
On to `O=S(=O)(c1ccccc1)c1nnn2c1nc(NCc1ccccc1)c1sccc12`, for which the activation is inactive: -7.56%.
For the compound `COCCNC(=O)Cn1c(=O)n(CCCCCC(=O)Nc2ccccc2)c(=O)c2sccc21`, the activation is inactive: -13.6%.
As for `CCOCCCN(Cc1ccco1)C(=O)c1cc2c(=O)[nH]c3ccc(C)cc3c2s1`, the activation was inactive: 14.9%.
In the case of `CCc1ccc2c(c1)-c1ccccc1S(=O)(=O)N2CC(=O)N1CCCCC1`, the activation is inactive: -21%.
Under `COc1ccc(-c2cn3c(n2)sc2cc(C(=O)NCCc4ccc(OC)cc4OC)ccc23)cc1` stands inactive: -3.42%; under `O=C(NCc1cccs1)c1ccc(Cn2c(SCc3ccc(F)cc3)nc3cccnc32)cc1`, inactive: -23%.
Consider `Cc1ccc(Cl)cc1N1CCN(C(=O)CN2C(=O)CSc3c2c(C)nn3-c2ccccc2)CC1`, for which the activation is inactive: 0%.
Turning to `COc1cccc(NC(=O)c2cnc(SCC(=O)N3CCOCC3)n(C)c2=O)c1`, the activation is inactive: -0.885%.
Turning to `Fc1ccc(-c2cn3cc(Cc4ccccc4)sc3n2)cc1`, the activation was inactive: -6.13%.
Take `COc1ccc(NC(=O)CSc2nc(-c3ccco3)cc(C(F)(F)F)n2)cc1Cl`: the activation is inactive: -2.35%.
With `CCCN(CCC)C(=O)Cn1c(=O)n(-c2ccc(Cl)cc2)c(=O)c2c3c(sc21)CCCC3`, the activation was inactive: -23.8%.
Under `CCc1ccc2oc(-c3cc(NC(=O)c4cc([N+](=O)[O-])ccc4N4CCOCC4)ccc3Cl)nc2c1` stands inactive: -0.296%.
Regarding `Cc1ccc(Cl)cc1N1CCN(C(=O)c2cc3c(-c4ccccc4F)nn(C)c3s2)CC1`, the activation was inactive: 11.2%.
`N#Cc1ccccc1NC(=O)CSc1nnc(N)s1`: the activation was inactive: -11.3%.
As to `COc1ccc(CNC(=O)c2cnc(N3CCOCC3)c3ccccc23)cc1`, the activation is inactive: -13.7%.
For the compound `CCCCS(=O)(=O)c1nc(-c2ccc(Br)cc2)cc(-c2ccccc2)c1C#N`, the activation was inactive: -28.5%.
Under `COc1ccc(-n2ncc(C(=O)N3CCOCC3)c2C2CCN(C(=O)OC(C)(C)C)CC2)cc1` stands inactive: -13%.
Turning to `Cc1cccc(NC(=O)CCc2c(C)nc3c(c(C)nn3C(C)(C)C)c2C)c1C`, the activation is inactive: 45.2%.
For the compound `O=C1COc2ccc(-c3cc(-c4ccccc4)c4c(n3)-c3cc(Cl)ccc3OC4)cc2N1`, the activation is inactive: 17%.
With `C[C@@H]1CC[C@@]2(OC1)O[C@H]1C[C@H]3[C@@H]4CC[C@H]5C[C@@H](O)CC[C@]5(C)[C@H]4CC(=O)[C@]3(C)[C@H]1[C@@H]2C`, the activation is inactive: -25.1%.
In the case of `Cn1c(=O)c2sccc2n2c(CCCC(=O)NCc3ccccc3)nnc12` it was inactive: 10.9%; in that of `CCN(C(=O)c1cn(CC)c(=O)c2cc(OC)c(OC)cc12)c1ccc(C)c(C)c1`, inactive: 4.34%.
On to `Cc1ccc(N2CCN(S(=O)(=O)c3ccc4[nH]c5c(c4c3)CCCCC5)CC2)c(C)c1`, for which the activation is inactive: 11%.
As to `CC1CCc2c(sc3nnn(CC(=O)Nc4ccc(Cl)cc4)c(=O)c23)C1` (stereo not drawn), the activation was inactive: -19.1%.
For `O=C(Nc1cccc(F)c1F)C1CCN(c2ncccn2)CC1`, the activation was inactive: 7.73%.
With `CSc1cccc(NC(=O)Cn2ncn3c(cc4ccccc43)c2=O)c1`, the activation was inactive: -7.17%.
For the compound `COc1ccc(-c2nc3c(c(SCC(=O)N4CCCCC4)n2)Cc2c(CO)cnc(C)c2O3)cc1`, the activation was inactive: -9.35%.
As for `COC(=O)c1cc(NC(=O)c2ccc3c(c2)NC(=O)c2ccccc2S3)cc(C(=O)OC)c1`, the activation is inactive: -18.4%.
For `COc1cccc(-n2nnc(-c3nc(-c4ccccc4F)no3)c2C)c1`, the activation was inactive: -9.2%.
As for `O=C(Nc1ccc(F)cc1)N1CCN(C(=O)c2nsc3ccccc23)CC1`, the activation is inactive: 10.3%.
On to `COC(=O)c1cc2occc2n1CC(=O)Nc1ccc(C(C)C)cc1`, for which the activation is inactive: -11.5%.
On to `CCSc1nn(CC(=O)Nc2ccc(C(=O)OC)cc2)c(N)c1S(=O)(=O)c1ccc(C)cc1`, for which the activation is inactive: 11.4%.
As to `Cc1cccc(N2CCN(C(c3ccccc3)c3nnc(-c4ccccc4Cl)o3)CC2)c1C` (stereo not drawn), the activation was inactive: -30.5%.
In the case of `COc1ccc(OC)c(CNC(=O)CN2CC(C)Sc3ccccc32)c1` (stereo not drawn), the activation is inactive: 20.6%.
For `Cn1nnc2c(N3CCN(c4cccc(C(F)(F)F)c4)CC3)ncnc21`, the activation was inactive: -3.95%.
As to `CCOc1ccccc1NC(=O)C(c1ccccc1)N1Cc2ccccc2C1=O` (stereo not drawn), the activation was inactive: -19.8%.
In the case of `Fc1ccccc1N1CCN(c2ncc3c(n2)CCN(Cc2cc(Br)cs2)C3)CC1`, the activation is inactive: -7.16%.
Consider `OCCN1CCN(CCCN2c3ccccc3C=Cc3ccccc32)CC1`, for which the activation was inactive: -6.63% and inactive: -10.1%.
